Out of some 310,000 compounds screened, about 14,000 (4.5%) showed an effect of 50% or more. The effect is printed as a negative number. This is one part of the list.
What follows are compounds tested against human ether-à-go-go-related gene (hERG) potassium channel (human, UniProt Q12809) (assay: primary screen, population patch clamp on CHO cells stably expressing hERG).
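Note: peak tail current of the secondary pulse compared with the same well before compound.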

Chain of human ether-à-go-go-related gene (hERG) potassium channel (Q12809 whole entry, looked up): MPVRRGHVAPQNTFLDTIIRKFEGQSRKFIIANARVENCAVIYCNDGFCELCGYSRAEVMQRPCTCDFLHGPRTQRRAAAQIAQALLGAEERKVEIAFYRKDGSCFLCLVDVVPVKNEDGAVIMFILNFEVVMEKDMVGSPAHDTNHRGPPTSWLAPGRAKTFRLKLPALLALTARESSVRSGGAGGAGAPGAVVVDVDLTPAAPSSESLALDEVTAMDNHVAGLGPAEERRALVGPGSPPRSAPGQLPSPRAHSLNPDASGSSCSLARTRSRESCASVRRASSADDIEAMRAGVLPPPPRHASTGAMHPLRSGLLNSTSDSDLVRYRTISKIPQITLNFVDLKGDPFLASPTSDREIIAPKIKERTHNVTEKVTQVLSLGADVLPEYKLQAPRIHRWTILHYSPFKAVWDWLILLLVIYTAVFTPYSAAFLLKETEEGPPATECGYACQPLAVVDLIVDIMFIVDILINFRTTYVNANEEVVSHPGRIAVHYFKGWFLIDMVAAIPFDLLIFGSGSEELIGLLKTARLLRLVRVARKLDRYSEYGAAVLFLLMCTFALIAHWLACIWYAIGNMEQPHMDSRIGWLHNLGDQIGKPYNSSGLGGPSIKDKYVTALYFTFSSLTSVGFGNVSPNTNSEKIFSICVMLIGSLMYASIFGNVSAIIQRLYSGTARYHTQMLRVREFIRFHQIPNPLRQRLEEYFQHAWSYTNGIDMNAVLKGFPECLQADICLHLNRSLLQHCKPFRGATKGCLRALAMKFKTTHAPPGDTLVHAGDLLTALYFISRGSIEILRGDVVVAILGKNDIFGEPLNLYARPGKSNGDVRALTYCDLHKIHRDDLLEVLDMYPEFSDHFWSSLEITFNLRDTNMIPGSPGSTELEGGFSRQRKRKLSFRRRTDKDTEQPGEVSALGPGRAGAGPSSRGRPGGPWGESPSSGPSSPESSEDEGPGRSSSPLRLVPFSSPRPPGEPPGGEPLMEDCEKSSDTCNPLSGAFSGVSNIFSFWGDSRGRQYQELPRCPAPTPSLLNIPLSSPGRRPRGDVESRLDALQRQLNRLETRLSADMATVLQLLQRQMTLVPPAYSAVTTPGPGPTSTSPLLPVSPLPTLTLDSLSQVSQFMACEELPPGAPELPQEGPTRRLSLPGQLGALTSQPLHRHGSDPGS

| Compound | hERG current change (%, negative = inhibition) at 10uM [%] |
| --- | --- |
| O=C(Nc1nc(-c2ccc(S(=O)(=O)N3CCCC3)cc2)cs1)c1ccco1 | 4.72 |
| COc1ccc(C(=O)N2CCCC(c3nc(-c4cccs4)no3)C2)cc1OC (centres unmarked) | -23.4 |
| COc1cc(/C=N\Nc2cc(=O)n(C)c(=O)n2C)ccc1O | -9.27 |
| CCCCC(CC)C(=O)Nc1cccc(SC)c1 (centres unmarked) | -36.5 |
| N=c1c2c3c(sc2ncn1N)CCC3 | 1.66 |
| O=C(O)c1[nH]c2ccc([N+](=O)[O-])cc2c1-c1ccccc1 | -20 |
| O=C1Nc2ccc(S(=O)(=O)NCCC3=CCCCC3)c3cccc1c23 | 15 |
| O=C(N/N=C/c1ccc(OC(F)F)cc1)c1ccc(CSc2nc3ccccc3[nH]2)cc1 | -12.8 |
| CCN(CC(=O)Nc1ccc(NC(C)=O)cc1)C(=O)C1CCCC1 | -13.9 |
| COc1ccc(/C=N/NC(=O)c2ccoc2C)cc1OC | -9.75 |
| O=C(Cn1cncn1)NCCC(c1ccccc1)c1ccccc1 | 6.86 |
| CCSc1nnc2ccc(-c3ccc(OC)c(OC)c3)nn12 | -27.3 |
| COc1ccccc1C(=O)NC(=O)COC(=O)C1CC2CCCC(C1)C2=O (centres unmarked) | -3.13 |
| O=C(N/N=C/c1c(O)n(CCc2ccccc2)c(=O)[nH]c1=O)c1ccncc1 | 7.9 |
| COc1ccc(/C(=N/O)C(C)(C)NO)cc1.Cl | 11.3 |
| CCc1c(C)nc2cc(-c3ccc(OC)cc3)[nH]n2c1=O | -10.4 |
| O=C1OCC2=C1C(c1ccc(F)cc1)Sc1ccccc1N2 (centres unmarked) | 14.5 |
| CCC(C)(C)NC(=O)C(c1ccccc1Cl)N(C(=O)CCC(=O)Nc1cc(C)on1)C1CC1 (centres unmarked) | 1.77 |
| Cc1ccc2cc(CN(C(=O)c3cccnc3)C(C)C)c(=O)[nH]c2c1 | -8.03 |
| O=C(NN1CCOCC1)c1ccccc1Br | 16.3 |
| COCc1nnc(NC(C)=O)s1 | 22 |
| O=C(CC1SC(=Nc2ccccc2)N(CCCO)C1=O)Nc1ccc(Cl)cc1 (centres unmarked) | -20 |
| CC(C)Cn1c(N)c(C(=O)COC(=O)c2cccnc2Cl)c(=O)n(C)c1=O | -31.7 |

| Compound | hERG current change (%, negative = inhibition) at 10uM [%] |
| --- | --- |
| COc1ccc(OCC(O)CN2CCCC2)cc1 (centres unmarked) | 15.2 |
| CC(C)CNC(=O)NC(=O)COC(=O)Cn1cnc2ccccc2c1=O | 6.46 |
| Cc1nc2c(C)cccc2cc1C(=O)N/N=C/c1cccc([N+](=O)[O-])c1 | -2.92 |
| Clc1ccccc1CNc1nc2ccccc2n2cnnc12 | -7.72 |
| N#Cc1ccc(CN2CCN(C(=O)CC(NC(=O)c3ccccc3)c3ccccc3)CC2)cc1 (centres unmarked) | -81.2 |
| Cc1oc(S(=O)(=O)N2CCCCC2)cc1NC(=O)Nc1ccccc1 | 8.12 |
| CC1CCCC(C)N1C(=O)Cn1nnc(-c2ccc([N+](=O)[O-])cc2)n1 (centres unmarked) | -40.9 |
| CCOC(=O)CCNC(=O)N1CCCC(C(=O)c2cc(C)c(OC)c(C)c2)C1 (centres unmarked) | 5.81 |
| CCOC(=O)c1nnn(-c2nonc2N)c1-c1ccc(Br)cc1 | 14.6 |
| CCCCCC(O)CCC(=O)NNC1=CC(=O)CC(C)(C)C1 (centres unmarked) | 13.9 |
| CCOCC(=O)Nc1c(C(=O)Nc2ccc3c(c2)OCO3)oc2ccccc12 | 20.9 |
| O=C(CCC(=O)Nc1ccc(Br)cc1)N/N=C/c1ccccc1O | 2.33 |
| Nc1nnc(-c2cccc([N+](=O)[O-])c2)o1 | 16.8 |
| CCOC(=O)c1cc(CC)sc1/N=C/c1c(O)ccc2ccccc12 | -9.45 |
| COCCNC(=O)/C(C#N)=C/c1cc(C)n(C2CCCCC2)c1C | -0.875 |
| CCOCCCNC(=S)Nc1cc(C)cc(C)c1 | 11 |
| CCOC(=O)C(Cc1c[nH]c2ccccc12)NC(=O)c1ccco1 (centres unmarked) | 1.55 |
| O=C(c1ccccc1)N1CCC(CC2CC(c3cccc(Br)c3)=NO2)(C(=O)NCC2CCCCC2)CC1 (centres unmarked) | -1.49 |
| COc1ccc2cc(C#N)c(N3CCOCC3)nc2c1 | -8.84 |
| CCOC(=O)c1c(S(=O)(=O)N2CCCCC2C)c(C)n(C)c1C (centres unmarked) | 8.39 |
| O=Nc1c2nc3ccccc3n(O)c-2c2ccccc12 | -5.65 |
| Cc1cc(Cl)c(S(=O)(=O)NCc2cccnc2)cc1OCC(N)=O | 10.1 |
| O=c1[nH]c(=O)n(Cc2ccccc2)c(O)c1/C=N/Nc1c(F)c(F)c(F)c(F)c1F | 3.83 |

| Compound | hERG current change (%, negative = inhibition) at 10uM [%] |
| --- | --- |
| CCc1ccc(/C=C2/SC(N3CCOCC3)=NC2=O)cc1 | -13.8 |
| CCOC(=O)C1C(=O)NCC2CCCC21 (centres unmarked) | 5.38 |
| COc1ccc(N(CC(=O)NCc2ccccc2)S(C)(=O)=O)cc1 | -27.9 |
| O=C(c1cc2nc(-c3ccccc3)cc(C(F)(F)F)n2n1)N1CCN2CCCC2C1 (centres unmarked) | -30.3 |
| CCOC(=O)c1ccc(NC(=O)CCc2c(C)nc3ncnn3c2C)cc1 | -47 |
| CCOc1ccc(C(=O)NCCC(=O)N2CCC3(CC2)NCCc2[nH]cnc23)cc1OCC | 19.9 |
| O=C(NCCc1ccccc1)C(c1ccc(F)cc1)N(C(=O)c1csnn1)C1CC1 (centres unmarked) | -2.1 |
| O=C1N/C(=N/O)S/C1=C/c1cccnc1 | -22.5 |
| COc1ccccc1N(CC(=O)N1CCCCCC1)S(C)(=O)=O | 20 |
| COc1cc(C(=O)NCCSc2ccc(Cl)cc2)cc(OC)c1OC | -3.08 |
| CC(C)NC(=O)c1nn(C)c2ccccc12 | 3.87 |
| CCN1C(=O)/C(=C2/C(=O)N3c4c(cc(OC(C)=O)cc42)C(C)=CC3(C)C)SC1=S | 3.55 |
| O=C(Cn1cnc2ccccc2c1=O)Nc1nc2ccccc2s1 | 24.5 |
| O=C(CSc1ncccn1)Nc1ccc2c(c1)CCC2 | -4.14 |
| Cc1ccc(C(=O)NNC(=O)C(C)Oc2ccccc2F)cc1S(=O)(=O)N1CCOCC1 (centres unmarked) | -12.4 |
| N/C(=N\OC(=O)Cc1ccccc1)c1ccccn1 | 1.47 |
| O=C(Cn1c(=O)n(CCCC(=O)NC2CCCC2)c(=O)c2ccccc21)NCCC1=CCCCC1 | -14.1 |
| O=C(COC(=O)[C@@H]1CC(O)CN1S(=O)(=O)c1ccccc1[N+](=O)[O-])Nc1ccc2ccccc2c1 (some centres unmarked) | -1.94 |
| Cc1ccc(S(=O)(=O)N(C)C)cc1NC(=O)COC(=O)Cc1ccsc1 | -79 |
| CCC(C(=O)NCCN1CCOCC1)n1nc(C)n2c(cc3sccc32)c1=O (centres unmarked) | 14.4 |
| COC(=O)COc1ccc2oc(=O)cc(C)c2c1 | 9.16 |
| O=C(COc1ccc(C(=O)c2ccccc2)cc1)NCC1CCCCC1 | -25.6 |
| CCSc1nc(NCCN(C)C)c2c3c(sc2n1)COC(C)(CC)C3 (centres unmarked) | -22.8 |

| Compound | hERG current change (%, negative = inhibition) at 10uM [%] |
| --- | --- |
| CC(=O)N1CCN(c2ccc(NC(=O)c3ccccc3C)cc2)CC1 | -0.597 |
| CCOc1ccc(S(=O)(=O)NCCC(=O)N2CCCC(C)C2)cc1 (centres unmarked) | -23.7 |
| Cc1cc(C)cc(NC(=O)CSc2nc(N)c(NC(=O)c3cccs3)c(=O)[nH]2)c1 | 20 |
| Cc1cccc(C(=O)OCC(=O)Nc2ccc3c(c2)OCCO3)c1 | -0.669 |
| CC1CN(c2ncnc3c2cnn3-c2ccc(Cl)cc2)CC(C)O1 (centres unmarked) | 0.749 |
| CCN(Cc1ccccc1)C(=O)c1cc(S(=O)(=O)N2CCOCC2)cn1C | -0.0169 |
| COC(=O)c1ccc(CSc2nnc(CS(=O)Cc3ccc(Br)cc3)n2-c2ccccc2)cc1 (centres unmarked) | -12 |
| COC(=O)c1ccc(CSc2nnc(NC(=O)c3cc4c(s3)CCCC4)s2)cc1 | 0.385 |
| CCCn1c(=N)n(CC(=O)c2cccs2)c2ccccc21 | -22 |
| COc1cc(-c2nc3ccccn3c2NCc2ccccc2)ccc1SC1CCCCC1.O=C(O)C(F)(F)F | 25.6 |
| COc1ccc(N2C(=O)NC(NC(=O)c3cccnc3)(C(F)(F)F)C2=O)cc1 (centres unmarked) | 39.4 |
| Cn1c(C2=C(O)CN(c3ccc4c(c3)OCCO4)C2=N)nc2ccccc21 | -20.1 |
| CCOC(=O)CNC(=O)CSc1nccn1Cc1ccco1 | 4.11 |
| COc1cc(C)c(NC(=O)C2CCN(S(=O)(=O)c3cccs3)CC2)cc1OC | -12.2 |
| O=C(NC(=S)N1CCc2ccccc21)c1ccccc1 | 7.36 |
| Cc1ccc(-n2c(C)nnc2SCC(=O)N(C)C2CCS(=O)(=O)C2)cc1 (centres unmarked) | 12.9 |
| O=C(CSc1nnnn1-c1ccc(Cl)cc1)NNC(=O)c1ccc([N+](=O)[O-])cc1 | -23.2 |
| CCN1C(=O)c2cccc3c(NC(=O)c4ccc(S(=O)(=O)N(C)C)cc4)ccc1c23 | -15.4 |
| COc1ccc(OC)c2c(C)cc(N3CCCN(C)CC3)nc12 | 1.33 |
| Cc1cc(C)cc(C(=O)NCC(=O)NCc2ccc(S(N)(=O)=O)cc2)c1 | 18 |

— article PMC4336329 (PLoS ONE, 2015)
